Reference: the supplement of paper PMC11417369
Some of the results follow.

test system: PfSIP2 AP2 domain 1 (GST-tagged); experiment: gcPBM binding intensity (ln(normalized median fluorescence intensity)); higher = stronger DNA binding
Method in brief: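 Binding intensity values are the highest Masliner-normalised natural-log median intensity among replicate spots of either probe orientation. The binding step lasted 1 h in 1× PBS with 1% milk, 0.2 mg/ml BSA, 0.5% salmon testes DNA and 0.03% Triton X-100, using GST-tagged P. falciparum DNA-binding domains expressed in E. coli on an Agilent 4 × 180k array of primer-extended double-stranded 36-bp intergenic genomic probes plus negative controls. Alexa488 anti-GST antibody and a 488 nm scan detected bound protein.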

| Sequence | gcPBM binding intensity (ln) |
| --- | --- |
| ATAAATTCTATGTATACACACATATAAAATATAGAT [CACACA_site7296] | 6.96 |
| ATTATATACATATATGCACACAAAAAAATATATATT [CACACA_site8508] | 7.28 |
| GACTATTTTAATATTTTACACACCATGTAAAATATA [CACACA_site9050] | 7.11 |
| ACATAATAAAAAAAACGTACAAATAGGTTTTTCATA [XGTACX_site6645] | 6.93 |
| TTTTTTTATTATTAAAGTACTAAAAAATGAAAACTG [XGTACX_site6758] | 7.49 |
| TATAATAAAAAATGTACACACATAAGAAAATTTAAT [CACACA_site2901] | 7.16 |
| TGGGAATAAAAACACACACACACACCGATATATATA [CACACA_site5875] | 7.75 |
| ATATATTAAAACCTAGTGCATTTGTACATATTTCAA | 8.05 |
| AGGTTAAAACATATATATATATATATATATATATAT [XGTACX_negctrl_site333] | 9.11 |
| TTATACAGGACAATAGTGCACATAAATATATGTATA | 10.6 |
| TATATATATATATACACACACACCGTCCGTGTTAAA [CACACA_site2979] | 9.53 |
| AAGTAATTTATGCATACACACATATATAAATATGTA [CACACA_site7813] | 7.11 |
| ATATATATAAAACACACACACACATGTTTTAAAACT [CACACA_site78] | 7.63 |
| AAAAACTATTGTAGGACACACAAAATTCCAATTTTA [CACACA_site1701] | 6.93 |
| AAATAAATGTTATGCATACACACTTTATACCTATTT [CACACA_site3779] | 7.36 |
| AATGAATGAATTATTTTGCGCTTATTATAGGACGAA [XGTACX_negctrl_site218] | 7.3 |
| ATATATATTAGGTATTGTACTTATATGCATATAAGT [XGTACX_site2700] | 7.26 |
| TCTTTTATGTTTGTTTTTCCCTTTTTTTATGTTCCC [CACACA_negctrl_site1722] | 6.95 |
| TATATATATATTTATACACACATTAGTGTATACATG [CACACA_site2950] | 8.89 |
| CACAAAAAGAAACACACACACATATATATTTATTAT [CACACA_site3646] | 6.87 |
| TTAGATATAAAAGCATGTACTTGTATAAAATATATA [XGTACX_site8272] | 7.03 |
| TTCCCTATATAGAGCATGCACTATATTCAAATGATG | 8.21 |
| TTATCAAATGAGTGTTGTACGTCTTTTGAAATACCA [XGTACX_site8804] | 7.23 |
| GAAAAATTGAATTTGGGTACATATAAATATTATATT [XGTACX_site2363] | 6.85 |
| ATAAATATTAGCAGTTGTACAATAAATATATGTAAT [XGTACX_site2534] | 7.06 |
